{"source": "PubChem BioAssay AID686978", "about": "(National Center for Advancing Translational Sciences (NCATS), 2013)", "note": "Where “and” joins values, the source holds several entries; their conditions need not be identical. Equal values may be shown once. Out of some 420,000 compounds screened, about 64,000 (15%) were called active. The inconclusive results got no clear call from the source; some entries with a clear call stand among them for comparison. The call rests on the fitted dose curve; in most records, active means well fitted inhibition curve with a large enough effect; inconclusive means small, poorly fitted or top-dose-only effect; inactive means flat fitted curve, though single readings scatter. Potencies beside an inconclusive call are fits to weak or partial responses and may not hold up. On the % scale 0 is the no-effect control and ±100 the full control effect; potency means the concentration at half of the fitted maximal effect; tags describe the fitted curve by direction and shape.", "data": [{"assay": "qHTS for Inhibitors of human tyrosyl-DNA phosphodiesterase 1 (TDP1): qHTS in cells in absence of CPT; further: nearly all actives have a fitted effect of over 55% in size", "conditions": "DT40 Tdp1-/- hTDP1 cells, no CPT, ATP luminescence, 48 h; activity change, negative = growth inhibition: at 46.2 µM (top of the series)", "method_in_brief": "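Chicken DT40 Tdp1-/- cells complemented with human TDP1, screened without camptothecin (DMSO vehicle only), 400 cells/well. Compounds pin-transferred, cells incubated at 37 °C for at least 48 hr. Growth read as ATP-dependent luminescence (CellTiter-Glo, 30 min at RT).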", "values": [{"molecule": "Cc1cc(=O)[nH]c(N/N=C/c2ccccc2Cl)n1", "activity change, negative = growth inhibition": "inconclusive: -31.5% [inhibitor]"}, {"molecule": "COC(=O)[C@H]1C[C@@H]1[C@H](NC(=O)c1ccccc1)c1ccccc1", "Potency": "inconclusive: 18.4 µM [inhibitor, single point]"}, {"molecule": "Cc1oc(S(=O)(=O)N2CCCCC2)cc1NC(=O)Nc1ccccc1", "Potency": "inconclusive: 29.1 µM [inhibitor, single point]"}, {"molecule": "O=C(COc1cccnc1[N+](=O)[O-])N1CCC(Cc2ccccc2)CC1", "Potency": "inconclusive: 16.4 µM [inhibitor, single point]"}, {"molecule": "CC1CCC(C(C)C)C(OCC(O)CNC(C)(C)C)C1", "note": "(configuration not stated)", "Potency": "inconclusive: 25.9 µM [inhibitor, single point]"}, {"molecule": "Cc1c(CCC(=O)O)c(=O)oc2c(C)c3occ(-c4ccc(Br)cc4)c3cc12", "Potency": "inconclusive: 14.6 µM [inhibitor, partial curve, poor fit]"}, {"molecule": "O=C(Nc1ccc2c(c1)CCCN2C(=O)c1cccs1)c1c(F)cccc1F", "Potency": "inconclusive: 29.1 µM [inhibitor, single point]"}, {"molecule": "O=C1N(CC(=O)N2CCc3ccccc32)CCN1Cc1ccccc1Cl", "Potency": "inconclusive: 32.6 µM [inhibitor, single point]"}, {"molecule": "COc1cccc(Nc2ncc3nc(CCc4ccccc4)c(=O)n(C)c3n2)c1", "Potency": "inactive"}, {"molecule": "COc1ccc(CNC(=O)C2CCC(CNS(=O)(=O)c3ccccc3)CC2)cc1", "note": "(configuration not stated)", "Potency": "inactive"}, {"molecule": "CC(C)CNC(=S)N1CCC(C(=O)c2ccc(F)cc2)CC1", "Potency": "inconclusive: 20.6 µM [inhibitor, partial curve]"}, {"molecule": "COc1cc(NC(=O)N2CCc3nc(Nc4cc(Cl)cc(Cl)c4)ncc3C2)cc(OC)c1OC", "Potency": "inconclusive: 25.9 µM [inhibitor, single point]"}, {"molecule": "COc1ccc(-c2noc(CSc3nnc(-c4ccncc4)n3-c3ccc(F)cc3)n2)cc1OC", "Potency": "inconclusive: 20.6 µM [inhibitor, single point]"}, {"molecule": "CC1=C/C(=N\\NC(=S)Nc2cccnc2)CC(C)(C)C1", "Potency": "active: 2.06 µM"}, {"molecule": "COc1ccc(-c2c(C(C)=O)c(C)nc3sc4c(=O)[nH]nnc4c23)cc1", "Potency": "inconclusive: 32.6 µM [inhibitor, single point]"}, {"molecule": "CCC1CCCCN1CCCn1c(=S)[nH]c2ccccc2c1=O", "note": "(configuration not stated)", "Potency": "inactive"}, {"molecule": "Cc1nc2cc(-c3cccs3)[nH]n2c(=O)c1C", "Potency": "inconclusive: 14.6 µM [inhibitor, partial curve]"}, {"molecule": "CCN(C(=O)c1ccc(Cl)c(S(=O)(=O)Nc2c(C)n(C)n(-c3ccccc3)c2=O)c1)c1ccccc1", "Potency": "inactive"}, {"molecule": "O=S(=O)(Nc1cccc2cccnc12)c1ccccc1", "Potency": "active: 8.2 µM"}, {"molecule": "CCOc1ccc(C(=O)NC(C)C2COc3ccccc3O2)cc1", "note": "(configuration not stated)", "Potency": "inconclusive: 16.4 µM [inhibitor, single point]"}, {"molecule": "COc1ccc(OC)c(Cc2nnc(CCC(=O)N3CCC(N4CCCCC4)CC3)o2)c1", "Potency": "inactive"}, {"molecule": "COCc1c(C(=O)NC2CCCCCC2)cnn1-c1nccc(-c2cc(C)sc2C)n1", "Potency": "inconclusive: 23.1 µM [inhibitor, partial curve]"}, {"molecule": "CCCCNC(=O)Cn1nnc(-c2ccccc2)c1COc1ccc(C(C)=O)cc1", "Potency": "inconclusive: 29.1 µM [inhibitor, single point]"}, {"molecule": "O=C(Cn1cc(SCc2ccccc2)c2ccccc21)N1CCCCC1", "Potency": "inconclusive: 18.4 µM [inhibitor, single point]"}, {"molecule": "CN(C)S(=O)(=O)c1c(Cl)cccc1Cl", "Potency": "inactive"}, {"molecule": "COc1ccc(OC)c(CCNC(=O)C2CCN(c3ncnc4c3nc3n4CCCCC3)CC2)c1", "Potency": "inconclusive: 20.6 µM [inhibitor, partial curve] and inconclusive: 29.1 µM [inhibitor, single point]"}, {"molecule": "CCOC(=O)c1ccccc1OCc1cc(/C=N/NC(=O)c2ccncc2)ccc1OC", "Potency": "inconclusive: 29.1 µM [inhibitor, single point]"}, {"molecule": "CC(=O)Nc1ccc(OCc2cccc([N+](=O)[O-])c2)cc1", "Potency": "inconclusive: 16.4 µM [inhibitor, single point]"}, {"molecule": "N#Cc1c(-n2ncnc2-c2ccc(Br)cc2)sc2c1CCCCC2", "Potency": "inconclusive: 25.9 µM [inhibitor, single point]"}, {"molecule": "COc1ccccc1C(=O)Oc1ccccc1C(=O)Nc1ccccc1", "Potency": "inconclusive: 29.1 µM [inhibitor, single point]"}, {"molecule": "CSc1ccc(CNC(=O)C2CCN(c3nnc(-n4cccc4CNc4ccc(C)cc4)s3)CC2)cc1", "Potency": "active: 16.4 µM"}, {"molecule": "CCOC(=O)c1cnn(-c2ccc(NS(=O)(=O)c3ccc(Cl)cc3)cc2)c1C(F)(F)F", "Potency": "inconclusive: 25.9 µM [inhibitor, partial curve, poor fit]"}, {"molecule": "Cc1cc(S(=O)(=O)N2CCN=C2c2ccccc2)c(C)cc1Cl", "Potency": "inconclusive: 14.6 µM [inhibitor, partial curve]"}, {"molecule": "CCCCNS(=O)(=O)c1ccc(NC(=O)Cc2ccc(OC)cc2)cc1", "Potency": "active: 7.31 µM"}, {"molecule": "COc1cccc(/C=C/C(=O)c2cccc([N+](=O)[O-])c2)c1", "Potency": "inconclusive: 29.1 µM [inhibitor, single point]"}, {"molecule": "CCc1ccc(CNC(=O)CN(c2ccc(C)cc2)S(=O)(=O)N(C)C)cc1", "Potency": "inconclusive: 16.4 µM [inhibitor, single point]"}, {"molecule": "CCCCn1c(SCC(=O)Nc2cccc(C)n2)nnc1-c1ccco1", "Potency": "inconclusive: 35.5 µM [inhibitor, single point]"}, {"molecule": "CCn1c(=O)cc(SCC(=O)Nc2ccc(C)cn2)c2ccccc21", "Potency": "active: 29.1 µM"}, {"molecule": "CC(C)(C)NC(=O)C(c1ccccc1F)n1c(=O)c(-c2ccccc2)nc2ccccc21", "note": "(configuration not stated)", "Potency": "inconclusive: 18.4 µM [inhibitor, single point]"}, {"molecule": "CSC[C@H]1CN(Cc2cccnc2)C(=O)[C@@H]1CC(=O)Nc1ccc(Br)cc1", "Potency": "inconclusive: 25.9 µM [inhibitor, single point]"}, {"molecule": "COCCN(Cc1cc2cc(C)ccc2n2nnnc12)C(=S)Nc1ccc(OC)cc1", "Potency": "inconclusive: 16.4 µM [inhibitor, single point]"}, {"molecule": "CC(=O)c1ccccc1NC(=O)c1ccc(N2CCCC2=O)cc1", "Potency": "inconclusive: 20.6 µM [inhibitor, single point]"}]}]}
